Source: PubChem BioAssay AID1508624 (National Center for Advancing Translational Sciences (NCATS), 2021)
About 120 (0.25%) of roughly 48,000 compounds were called active. Roughly 4% stayed inconclusive and do not appear here. The call rests on the fitted dose curve; in most records, active means well fitted activation curve with a large enough effect; inconclusive means small, poorly fitted or top-dose-only effect, or another doubt; inactive means no such curve, though single readings can be large or run the other way. The list shows a part of the results.

Test: Primary qHTS for Identification of Small Molecule Activators of Huntingtin-Antisense Promoter Activity; further: nearly all actives have a fitted effect of over 55% in size
Conditions: HEK293 HTT-AS promoter firefly luciferase reporter (activity 0% = vehicle and -100% = no light), 24 h; series mostly up to 57.5 µM; activity change, positive = activation: at the top concentration
Procedure, shortened: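 Quantitative HTS used concentration series of up to 57.5 uM final on HEK293 luciferase reporter cells, 24 h at 37 degrees C. Readout was Dual-Glo firefly luminescence.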

Activity change, positive = activation, inactive:
O=C(CCc1nc2cccnc2n1Cc1cccs1)Nc1cccc(C(F)(F)F)c1 -34.2%
O=C(c1ccc(C(F)(F)F)cc1)N1CCC(c2noc(-c3ccc(S(=O)(=O)N4CCCC4)cc3)n2)CC1 -20.8%
NC(=O)c1ccccc1NC(=O)C1CCCN(c2ncnc3onc(-c4ccc(F)cc4)c23)C1 (stereo not given) -11.7%
O=C(c1cccs1)N(Cc1cccnc1)c1nc2c(Cl)cccc2s1 -18.2%
Cc1ccc(NC(=O)CN2C(=O)CCc3cc(S(=O)(=O)N4CCOCC4)ccc32)cc1N(C)C -11.1%
O=C(NC1CCCC1)c1ccc2c(c1)N(Cc1ccc(C(F)(F)F)cc1)C(=O)c1ccccc1S2 -3.58%
Cc1ccccc1Cn1c(=O)n(Cc2ccc3c(c2)OCO3)c(=O)c2oc3ccccc3c21 -13.4%
COCCCNS(=O)(=O)c1cc(-c2onc(C)c2C)ccc1OC -16.9%
COc1ccc(N2CCN(C(=O)CSc3n[nH]c(-c4ccccc4)n3)CC2)cc1 -16.4%
COc1ccc(-c2noc(CCC(=O)N(C)c3ccccc3C)n2)cc1 -25%
CN(C)C(=O)c1ccc(NC(=O)Cn2nnnc2-c2ccccc2F)cc1 -10.8%
COc1ccc(Nc2c3c(nc4ccc(NC(=O)/C=C/c5cc(OC)c(OC)c(OC)c5)cc24)CCCC3)cc1OC -76.5%
O=C(Nc1ccc(-c2nc3cc(NC(=O)c4ccccc4Cl)ccc3o2)cc1)c1ccccc1Cl -21.4%
Cc1ccc2c(CC(=O)Nc3cccc(Cl)c3C)coc2c1 4.89%
Cn1c(=O)n(C/C=C/c2ccccc2)c(=O)c2c1nc1n2CCN1c1ccc(F)cc1 -3.23%
COc1ccc(S(=O)(=O)NCCc2sc(C)nc2C)cc1F -31.8%
CCOC(=O)C1=C(C)NC(C)=C(C(=O)OCC)C1c1ccccc1/C=C/C(=O)OC(C)(C)C -24%
Cc1cccc(OCCCCn2c(C3CC(=O)N(c4ccccc4Cl)C3)nc3ccccc32)c1 (stereo not given) -31%
Cc1ccc(-c2nc3cc(NC(=O)c4cc5ccccc5o4)ccc3o2)cc1 23.1%
CCN1C(=O)c2ccccc2Sc2ccc(NC(=O)COc3ccc(Cl)cc3)cc21 -21.1%
COc1ccc(C(=O)CC2(O)C(=O)Nc3c(C)cccc32)c(OC)c1OC (stereo not given) -11.5%
CCOc1ccc(-n2c(SCC(=O)Nc3cccc(Cl)c3)nc3c(oc4ccccc43)c2=O)cc1 -16.3%
CCOc1ccc(-c2cnc(NCc3ccc(C(F)(F)F)cc3)n2C)cc1 -19.1%
CN1CCN(c2ncc3c(n2)CCN(Cc2cc(Br)cs2)C3)CC1 -17.6%
CN(C)c1ccc(CNC(=O)C2CCCN(S(=O)(=O)c3ccc4c(c3)oc(=O)n4C)C2)cc1 (stereo not given) -11.5%
COc1ccc(-c2ccc3c(N4CCOC[C@H]4C)nc(N4CCOC[C@H]4C)nc3n2)cc1CO -26.1%
Cc1cccc(OCC(=O)NC(Cc2c[nH]c3ccccc23)C(=O)O)c1C (stereo not given) -1.64%
CC1=C(C(=O)Nc2ccc(Cl)cc2)C(c2ccccc2C)n2ncc(C(=O)Nc3ccc(C)cc3)c2N1 (stereo not given) -30.5%
COc1ccc(CCNC(=O)C(=O)NCC(c2ccc3c(c2)OCO3)N2CCOCC2)cc1 (stereo not given) -21.6%
O=C(Nc1cc(F)ccc1F)N1CCC(CN2CCOCC2)CC1 -2.96%
COc1ccc(-n2cc(-c3ccccc3)c3c(NC4CCCCC4)ncnc32)cc1 -29.7%
Cn1c(=O)n(-c2ccc(C(C)(C)C#N)cc2)c2c3cc(-c4cnc5ccccc5c4)ccc3ncc21 -25%
Cc1cc(OCCOCC[N+](C)(C)Cc2ccccc2)ccc1C(C)(C)CC(C)(C)C -49%
CC(NC(=O)c1ccc2c(c1)N(Cc1cccc(F)c1)C(=O)c1ccccc1S2)c1ccccc1 (stereo not given) -21.3%
CCCCN(C)CCNC(=O)c1c(C)oc2ncnc(N3CCOCC3)c12 -9.43%
Cc1cccc(NC(=O)Cn2c(=O)n(CCC(C)C)c(=O)c3cccnc32)c1 -6.99%
Cc1ccc(NC(=O)c2cnn(-c3ccc(C)c(C)c3)c2C2CCN(C(=O)OC(C)(C)C)CC2)c(C)c1 -23.6%
Cc1ccc(-n2nc(C(=O)N3CCN(c4cccc(C(F)(F)F)c4)CC3)c(=O)n(C)c2=O)cc1 -32.4%
Cc1ccc(CNc2ccc(-c3nc(C(C)C)no3)cc2[N+](=O)[O-])cc1 -14.4%
COc1cc(NC(=O)CN2C(=O)C(c3ccc(C)cc3)=NC23CCCCC3)cc(OC)c1 -20.4%
Cc1ccc(-n2c(=O)c3c(c4cc(C)ccc4n3C)n(CC(=O)Nc3c(C)cccc3C)c2=O)cc1 -14.7%
O=C(CCSCCc1ccccn1)Nc1cc(F)ccc1F -6.56%
Cc1cccc(N2CCN(C(=O)c3cc4c(=O)oc5ccccc5c4s3)CC2C)c1 (stereo not given) -27.7%
COc1ccc(CNS(=O)(=O)c2cc3c(cc2C)n(C)c(=O)c(=O)n3C)cc1 -14.3%
COc1cccc(NC(=O)c2nn(-c3ccc(C)cc3)c(=O)n(C)c2=O)c1 -2.1%
CC(C)CN(CC(C)C)C(=O)C1CCCN(S(=O)(=O)c2ccc3c(c2)oc(=O)n3C)C1 (stereo not given) -1.45%
COc1ccc(CCC(C)=O)cc1 -5.55%
Cc1ccc(NS(=O)(=O)c2ccc3c(c2)NC(=O)C(C)C(=O)N3)cc1F (stereo not given) -28.6%
Cc1ccc(NC(=O)CSc2cc(=O)n(C)c3ccc(Cl)cc23)c(Br)c1 -3.93%
CCc1ccc(CNC(=O)c2ccc3nc(SCc4ccc(F)cc4)n(C)c3c2)cc1 -30.6%
CCOc1ccc(C(=O)Nc2cc(NC(=O)c3ccco3)ccc2OC)cc1Br -11.6%
Cc1ccc(CCNC(=O)CCN2N=C(c3ccc(C)cc3)CCC2=O)cc1 -19.2%
COc1ccc(CCC(=O)NCc2ccc3c(c2)CCN3C(=O)c2ccc(F)cc2)cc1 4.45%
Cc1ccsc1CCN1C(=O)N(c2ccccc2)C(=O)C1CC(=O)Nc1ccc(F)cc1 (stereo not given) -25.2%
COc1ccc(-c2nc3cc(NC(=O)Cc4ccc(Cl)cc4)ccc3o2)cc1OC -35.9%
Cc1ccc(Cl)cc1Nc1nc2ccccc2c2nncn12 -9.23%
Cc1cccc(C)c1NC(=O)c1ccc2c(c1)N(Cc1cccc(Cl)c1)C(=O)c1ccccc1S2=O (stereo not given) -20%
CCOC(=O)c1ccc(NC(=O)Cn2nc(SC)c(S(=O)(=O)c3ccc(Cl)cc3)c2N)cc1 -52.4%
CC(C)CC(=O)Nc1nnc(S(=O)(=O)N2CCCCCC2)s1 -7.4%
CCOc1cc(CC(=O)N[C@@H](CC(C)C)c2ccccc2N2CCCCC2)ccc1C(=O)O -18.4%
